# Data from PubChem BioAssay AID1745853 (National Center for Advancing Translational Sciences (NCATS), 2022).
# Several values for one entry are separate records, joined by “and”; a condition that tells them apart may be missing. Equal entries are not always repeated. The list shows a part of the results. Shown are side measurements of this screen, not its main read-out; they come without a call.
# Columns and labels:
# Assay in all cases: Primary Screen for Target Class Profiling of Small Molecule Inhibitors of Methyltransferases
# [1] = target: Glycine N-methyltransferase (Homo sapiens) (UniProt Q14749); details: purified enzyme, MTase-Glo SAH luminescence; measured here: GNMT inhibition; at 40 µM; stronger effect = lower value
# In short: (§1)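 Each enzyme was reacted with SAM and its substrate, with compounds tested once at 40 uM; SAH formed was read by MTase-Glo luminescence.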
# [2] = target: Guanidinoacetate N-methyltransferase (Homo sapiens) (UniProt Q14353); details: purified enzyme, MTase-Glo SAH luminescence; measured here: GAMT inhibition; at 40 µM; stronger effect = lower value
# In short: as §1
# [3] = target: Histamine N-methyltransferase (Homo sapiens) (UniProt P50135); details: purified enzyme, MTase-Glo SAH luminescence; measured here: HNMT inhibition; at 40 µM; stronger effect = lower value
# In short: as §1
# [4] = target: Nicotinamide N-methyltransferase (Homo sapiens) (UniProt P40261); details: purified enzyme, MTase-Glo SAH luminescence; measured here: NNMT inhibition; at 40 µM; stronger effect = lower value
# In short: as §1
# [5] = target: Phenylethanolamine N-methyltransferase (Homo sapiens) (UniProt P11086); details: purified enzyme, MTase-Glo SAH luminescence; measured here: PNMT inhibition; at 40 µM; stronger effect = lower value
# In short: as §1
# % is scaled to controls: 0 for no effect and ±100 for the full control effect.
Compound,"activity change, negative = inhibition [1]","activity change, negative = inhibition [2]","activity change, negative = inhibition [3]","activity change, negative = inhibition [4]","activity change, negative = inhibition [5]"
C[C@@H]1CN(C(=O)NCC2CCCCC2)CC[C@@]1(O)C1CCOCC1,-5.25%,-9.12%,-5.86%,-11.6%,-5.59%
Cc1nc2cnccn2c1C(=O)N1CCC(C#N)CC1,-3.49%,-5.42%,-1.98%,-8.89%,-8.73%
O=C(/C=C/C=C/c1ccc2c(c1)OCO2)N1CCCCC1,-0.55%,-0.572%,-6.33%,-17%,-3.11%
C=Cc1ccc(Cn2nc3n(CCC)c(=O)c4ccc(Cl)cc4n3c2=O)cc1,-4.11%,2.42%,3.16%,-1.06%,0.657%
Cc1ccc2nc(C(NC(=O)C3CCN(CC(N)=O)CC3)C(C)C)[nH]c2c1 (stereo not given),-2.38%,-1.83%,-3.13%,-8.29%,-6.71%
O=c1c2ccccc2nc2n1CCc1c-2[nH]c2ccccc12,-17.6% and -9.51%,-1.8% and 0.798%,-3.67% and -5.5%,-16.6% and -14.9%,-8.5% and -5.99%
CCCC1c2cccn2CCN1C(=O)Nc1ccccc1OCC (stereo not given),0.36%,2.65%,-16%,5.96%,6.54%
CC1CCC(NC(=O)C2(C)Cn3c(nc4ccccc43)C(=O)N2Cc2ccco2)CC1 (stereo not given),-4.74%,1.43%,-5.18%,-6.7%,-6.17%
Cc1cccc(Cn2nc3n(CCC(C)C)c(=O)c4ccc(C(=O)NC5CCCC5)cc4n3c2=O)c1,2.66%,5.7%,6.91%,-0.978%,1.98%
CCCn1cnc2c1c(=O)n(CCCCC(C)=O)c(=O)n2C,-1.36%,5.25%,1.62%,-5.97%,7.29%
COc1cccc(-c2noc(CN3CCC(c4nc(-c5cccn5C)no4)C3)n2)c1OC (stereo not given),-8.47%,-0.07%,-0.478%,-12.6%,-1.82%
CCOc1ccc(N2C(=O)c3c(C(=O)OC)ncn3CC2(C)C(=O)NC2CCCC2)cc1 (stereo not given),0.398%,-1.51%,-7.19%,-2.33%,-3.52%
O=C(C[C@@H]1C[C@H]2O[C@H](CNC3Cc4ccccc4C3)[C@@H](O)[C@H]2O1)N1CCC(F)(F)C1,-0.416%,0.972%,2.28%,-7.24%,7.42%
O=C(Nc1ccccc1F)N1CC(Oc2cccc(-c3nc(-c4ccccc4)no3)c2)C1,-5.44%,-12%,-3.48%,-4.96%,-4.92%
Cc1ccc(CNC(=O)C2(C)Cn3nc(C(=O)NCCc4ccccc4C)cc3C(=O)N2C)cc1 (stereo not given),2.44%,0%,5.5%,2.02%,2.17%
O=C(CCc1nnc2n(Cc3ccc(F)cc3)c(=O)c3ccccc3n12)NCc1ccc(Cl)cc1,-11.2%,4.01%,-0.015%,-3.47%,-7.59%
CCCCCCCCCCCCCCSCC(=O)O,1.85%,8.95%,3.04%,-7.29%,4.71%
CC(C)N(Cc1nccn1C)C(=O)CC(c1ccccc1)c1ccccc1F (stereo not given),-6.31%,-6.95%,-11.6%,-15.1%,-5.43%
Cc1ccc(NC(=O)Cn2nc3n(C(C)C)c(=O)c4ccc(C(=O)NCC(C)C)cc4n3c2=O)cc1F,5.18%,0.071%,9.98%,-2.05%,4.95%
CC1(C)CC[C@]2(C(=O)O[C@@H]3O[C@H](CO[C@@H]4O[C@H](CO)[C@@H](O)[C@H](O)[C@H]4O)[C@@H](O)[C@H](O[C@@H]4O[C@H](CO)[C@@H](O)[C@H](O)[C@H]4O)[C@H]3O)[C@H](O)C[C@]3(C)C(=CCC4[C@@]5(C)CC[C@H](O[C@@H]6OC[C@@H](O)[C@H](O)[C@H]6O)[C@@](C)(C(=O)O)C5CC[C@]43C)[C@@H]2C1 (stereo not given in full),3.43%,-3.73%,6.92%,-12.2%,4.84%

Compound,"activity change, negative = inhibition [1]","activity change, negative = inhibition [2]","activity change, negative = inhibition [3]","activity change, negative = inhibition [4]","activity change, negative = inhibition [5]"
COC(=O)c1ncn2c1C(=O)N(CCc1ccc(SC)cc1)C(C)(C(=O)NC1CCCCC1)C2 (stereo not given),0.467%,0%,11.6%,4.57%,3.72%
CC(C)OCCCn1c(=O)c2ccccc2n2c(CCC(=O)NCc3ccccc3Cl)nnc12,0.445%,-4.3%,10.3%,-1.92%,-10.9%
CC(=O)OC/C=C(\C)C(CC1C(C)=C(OC(C)=O)C(=O)C2C(C)(C)C(O)CCC12C)OC(C)=O (stereo not given),3.21%,6.76%,10.9%,-9.86%,6.35%
O=C(O)CN(CCN(CC(=O)O)CC(=O)O)CCN(CC(=O)O)CC(=O)O,-4.53%,8.2%,2.48%,-7.07%,1.05%
COc1cc(OC)cc(C(=O)NCC2CCCN(C(=O)CCNC(C)=O)C2)c1 (stereo not given),0.082%,0.367%,0.963%,-3.89%,-0.557%
CC(C)OCCCn1c(=O)c2ccccc2n2c(CCC(=O)NCCc3ccc(Cl)cc3)nnc12,-5.24%,3.9%,3.21%,-3.54%,-2.39%
CC1(C(=O)NCc2ccccc2)Cc2ccccc2C(=O)N1Cc1ccccc1 (stereo not given),11.7%,0%,10.2%,-1.16%,4.16%
CC(C)(CO)Cc1cc(C(C)(C)C)c(O)c(C(C)(C)C)c1,5.42%,16.7%,10.5%,-5.96%,2.59%
C=C1C(=O)OC2C1CCC(=C)C1CC(OC(C)=O)C(=C)C12 (stereo not given),-16.7%,-11.3%,-5.14%,-19.7%,-17.1%
Cc1ccccc1NC(=O)CSc1nnc2n(CC(C)C)c(=O)c3ccccc3n12,-4.19%,0.743%,-0.432%,-2.37%,0.783%
C#CCN(C)CCCOc1ccc(Cl)cc1Cl,6.29%,13.1%,8.21%,-5.25%,4.4%
COc1ccc(CCN2C(=O)c3cc4ccccc4n3CC2(C)C(=O)NC2CCCC2)cc1OC (stereo not given),-2.13%,0%,-3.76%,-21.4%,1.49%
CN(Cc1cccn1C)C(=O)c1ccc(Cl)nc1,-4.58%,-7.51%,-1.75%,-5.88%,-5.06%
C[C@@H]1CN(C[C@@H]2CN(C(=O)c3ccc(Cl)o3)C[C@@H]2CO)C[C@H](C)O1,-2.31%,0.626%,0.258%,-0.018%,-2.99%
Cn1c(=O)cc(N2CCCC(N)C2)n(Cc2cc(F)ccc2C#N)c1=O (stereo not given),1.11%,-10.3%,-9.83%,-17.8%,-7.98%
CC(C)NCC(O)c1cc(O)cc(O)c1 (stereo not given),0.642%,10.3%,10.8%,-6.78%,0.884%
Cc1cccc(-c2n[nH]n3c2nc(=O)c2ccc(C(=O)N4CCN(c5ccccn5)CC4)cc23)c1,-14.7%,2%,-8.23%,-6.05%,-4.76%
CCNC(=O)N(C1CC1)C1CCOC2(CCN(C(=O)COc3ccccc3)CC2)C1 (stereo not given),-3.69%,-4.42%,-1.08%,-5.79%,-3.41%
O=S(=O)(c1ccc(F)cc1)N1CCCC(CN2CCOCC2)CC1 (stereo not given),-0.715%,0.397%,-4.87%,0.341%,-7.62%
O=C(/C=C/c1ccc(O)cc1)O[C@@H]1C[C@@](O)(C(=O)O)C[C@@H](O)[C@@H]1O,5.5%,2.36%,-2.57%,-7.82%,2.83%

Compound,"activity change, negative = inhibition [1]","activity change, negative = inhibition [2]","activity change, negative = inhibition [3]","activity change, negative = inhibition [4]","activity change, negative = inhibition [5]"
C[C@@H]1O[C@@H](O[C@H]2[C@H](OC(=O)C34CCC(C)(C)CC3C3=CCC5C6(C)CC(O)C(O[C@@H]7O[C@H](CO)[C@@H](O)[C@H](O)[C@H]7O)C(C)(C(=O)O)C6CCC5(C)C3(CO)CC4)O[C@H](C)[C@H](O)[C@@H]2O)[C@H](O)[C@H](O)[C@H]1O[C@@H]1OC[C@@H](O)[C@H](O)[C@H]1O (stereo not given in full),-1.04%,-2.71%,5.13%,-15.3%,3.23%
COc1ccc(-c2cc3n(n2)CC(C)(C(=O)NCc2ccccc2)N(Cc2ccc(Cl)cc2)C3=O)cc1 (stereo not given),2.09%,2.2%,6.18%,2.32%,0.907%
CC(=O)/C(C)=N/O,7.14%,8.64%,10.1%,-5.44%,2.22%
CC(=O)N1CCc2ccc(O)c(OC3OC(COC4OCC(O)(CO)C4O)C(O)C(O)C3O)c2C1Cc1ccc(O)cc1 (stereo not given),0%,4.23%,8.26%,-7.9%,-1.06%
COc1ccc(N2C(=O)c3cc4occc4n3CC2(C)C(=O)NC2CCCC(C)C2C)cc1OC (stereo not given),5%,17.5%,6.05%,11.2%,1.05%
O=C(NCc1ccc2c(c1)OCO2)C1CCN(c2cn[nH]c(=O)c2)C1 (stereo not given),-6.08%,-12.1%,-4.39%,-16.9%,-14.1%
Cc1ccsc1CCNC(=O)Cn1c(=O)oc2cc(S(=O)(=O)N3CCCC3)ccc21,4.3%,0%,9.93%,9.69%,-54.4%
COC(=O)Nc1cc(-c2ccncc2)nn1C,-1.51%,0.847%,0.712%,-5.77%,15.2%
Cc1ccc(N(C)C(=O)Cn2c(=O)oc3cc(S(=O)(=O)N4CCCCC4)ccc32)cc1,-0.006%,0%,3%,8.68%,-2.64%
Cc1ccc(Cn2c(=O)c3ccccc3n3c(CCC(=O)N4CCN(c5ccc(F)cc5)CC4)nnc23)cc1,-9.5%,1.32%,-8.75%,-8.89%,-11.9%
COc1cccc(CN2C(=O)c3cc4sccc4n3CC2(C)C(=O)NC2CCC(C)CC2)c1 (stereo not given),0.985%,4.74%,3.52%,-15%,-3.32%
CCc1ccccc1N1C(=O)c2c(C(=O)OC)ncn2CC1(C)C(=O)NCCCOC(C)C (stereo not given),6.42%,4%,15.4%,10.4%,12.3%
COc1ccc(C(=O)Cn2nc3n(C)c(=O)c4ccc(C(=O)NC5CCCCC5)cc4n3c2=O)cc1,2.89%,0%,-2.34%,4.34%,2.57%
O=c1cc(-c2ccccc2)c2ccc(OCc3ccccc3F)cc2o1,-2.03%,5.23%,0.306%,3.03%,-10.1%
CCOC(=O)c1ccc(N2C(=O)CSc3c(c4ccccc4n3C)C2C(=O)NCCCOC(C)C)cc1 (stereo not given),-0.968%,-4.81%,-0.519%,-12.6%,-5.83%
CC(C)Oc1ccc(CN2C(=O)c3cc4ccccc4n3CC2(C)C(=O)NC2CCCC2)cc1 (stereo not given),-0.845%,1.26%,-1.28%,-4.88%,-1.46%
COc1ccc(CNC(=O)C[C@@H]2O[C@H](CNC(=O)NC(C)C)[C@@H](O)[C@H]2O)cc1,0.06%,-0.15%,-0.154%,-0.751%,-4.42%
COCC(=O)N1CCN2C(=O)N(C)C[C@H]2C1,-2.9%,-4.89%,0.45%,-8.07%,-5.11%
